From the supplement of paper PMC10369915
The list shows a part of the results. Rule as the data show it: active = 3.2 or more and inactive = the rest. The signal is at background level for most entries.

Assays:
Assay in all cases: enrichment score (SH2-bound / input frequency) (ratio); bacterial display of known human phosphotyrosine sites (pTyr-Var adds point mutants) read by sequencing; higher = stronger binding; tyrosines were phosphorylated by kinases first
Settings in all cases: peptide library: pTyr-Var
[1] = target: SHP2 C-SH2 domain E139D
[2] = target: SHP2 C-SH2 domain wild-type
[3] = target: SHP2 N-SH2 domain L43F
[4] = target: SHP2 N-SH2 domain T42A
[5] = target: SHP2 N-SH2 domain T52S
[6] = target: SHP2 N-SH2 domain wild-type

Measured: enrichment score
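Also: displayed peptides selected on beads carrying the immobilized SH2 domain, with library peptides lacking any tyrosine serving as negative controls.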

SLALFYRKVFH [RBL1_Y792_YF]
inactive: [1] 0.485 | [2] 0.443 | [3] 0.427 | [4] 0.617 | [5] 0.506 | [6] 0.56

VVTFSYKPPGN [RBL2_Y544]
inactive: [1] 1.26 | [2] 1.39 | [3] 1.22 | [4] 1.51 | [5] 1.54 | [6] 1.25

PGGNIYISPLK [RB1_Y805]
inactive: [1] 0.417 | [2] 0.529 | [3] 1.29 | [4] 0.63 | [5] 0.404 | [6] 0.594

SLALFYRKVYH [RBL1_Y792]
inactive: [1] 0.272 | [2] 0.337 | [3] 0.236 | [4] 0.239 | [5] 0.357 | [6] 0.343

YEREQYADRAR [RBM4_Y355]
inactive: [1] 0.615 | [2] 0.526 | [3] 0.516 | [4] 0.472 | [5] 0.58 | [6] 0.791

DVVKDCAFVHM [RBM14_Y114_Y114C]
inactive: [1] 0.855 | [2] 0.815 | [3] 0.709 | [4] 0.596 | [5] 0.738 | [6] 0.793

MDFRSYPHEFG [RBM10_Y44_R46H_YF]
inactive: [1] 0.903 | [2] 0.706 | [3] 0.817 | [4] 0.926 | [5] 0.853 | [6] 0.8

YEREQYADRTR [RBM4_Y355_A359T]
inactive: [1] 0.432 | [2] 0.393 | [3] 0.443 | [4] 0.254 | [5] 0.45 | [6] 0.447

SLALFYRNVYH [RBL1_Y792_K794N]
inactive: [1] 0.4 | [2] 0.527 | [3] 0.504 | [4] 0.44 | [5] 0.483 | [6] 0.571

DVVKDYAFVHM [RBM14_Y114]
inactive: [1] 0.757 | [2] 0.919 | [3] 0.746 | [4] 0.726 | [5] 0.876 | [6] 0.861

GVRLFYRVRES [RB1_Y454_M457R_YF]
inactive: [1] 0.245 | [2] 0.218 | [3] 0.29 | [4] 0.298 | [5] 0.222 | [6] 0.238

FFRKVYHLASV [RBL1_Y796_YF]
inactive: [1] 0.836 | [2] 0.749 | [3] 0.585 | [4] 0.534 | [5] 0.784 | [6] 0.787

FYRNVYHLASV [RBL1_Y796_K794N]
inactive: [1] 0.811 | [2] 0.642 | [3] 0.683 | [4] 0.591 | [5] 0.839 | [6] 0.649

FRDMDYRSFPH [RBM10_Y41_R46H_YF]
inactive: [1] 0.862 | [2] 0.801 | [3] 0.828 | [4] 0.843 | [5] 0.772 | [6] 0.936

TEDELYQLFLQ [RASGRP2_Y378_S381F]
inactive: [1] 0.726 | [2] 0.658 | [3] 0.708 | [4] 0.593 | [5] 0.668 | [6] 1.12

SFPREYGSQEG [RBM10_Y48_YF]
inactive: [1] 0.494 | [2] 0.548 | [3] 0.571 | [4] 0.678 | [5] 0.438 | [6] 0.548

FFRNVYHLASV [RBL1_Y796_K794N_YF]
inactive: [1] 0.811 | [2] 0.534 | [3] 0.559 | [4] 0.511 | [5] 0.74 | [6] 0.495

IGSQRYQLGVR [RB1_Y446_K447Q]
inactive: [1] 0.791 | [2] 0.666 | [3] 0.697 | [4] 0.69 | [5] 0.622 | [6] 0.704

SEHLTYLEFKS [RASGRP1_Y215]
inactive: [1] 0.899 | [2] 1.01 | [3] 0.928 | [4] 0.977 | [5] 0.705 | [6] 1.18
